Laboratory results taken from the supplement of paper PMC6135742.
Structures can show the parent of a compound that is named as a salt. ± gives the standard deviation of the averaged measurements. Over roughly 2,600 compounds, “MBP+ mature oligodendrocyte number relative to DMSO vehicle control” has its median near -0.34; the highest 2% begin near 13. This is one part of the list.

These molecules were tested on jimpy (Plp1 jimpy) mouse iPSC-derived oligodendrocyte progenitor cells (assay: MBP+ mature oligodendrocyte number relative to DMSO vehicle control (SDs above negative control mean); higher = more surviving jimpy oligodendrocytes (rescue)). Settings: 10 µM; 3 days.
Method: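 Primary phenotypic screen of >3,000 bioactive compounds (Selleck L1700 and Sigma LO1280 libraries) at a single dose of 10 µM. Compounds were added to jimpy (Plp1 mutant) mouse iPSC-derived OPCs at the start of thyroid hormone-induced oligodendrocyte differentiation, one well per compound in 384-well plates. After 3 days cells were stained for MBP, Sox10 and DAPI and imaged with an Operetta system. MBP+ oligodendrocyte number and total cell number were expressed as the number of SDs above the mean of the DMSO negative control on the same plate (n=16 control wells per plate). Hits were defined as >=4 SD for oligodendrocytes and >=2 SD for total cells.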
N=C(N)NN [Aminoguanidine hydrochloride] was tested, and the “MBP+ mature oligodendrocyte number” value was -0.551.
In the case of N=C(N)NN [Aminoguanidine hemisulfate], the “MBP+ mature oligodendrocyte number” value is reported as -1.3.
For CC(C)N(CCC(C(N)=O)(c1ccccc1)c1ccccn1)C(C)C (stereo not drawn) [Disopyramide], the “MBP+ mature oligodendrocyte number” value was 2.18.
CC(C)N(CCC(C(N)=O)(c1ccccc1)c1ccccn1)C(C)C (stereo not drawn) [Disopyramide phosphate] was tested, and the “MBP+ mature oligodendrocyte number” value was 1.13.
For O=[N+]([O-])/C=C/c1ccc2c(c1)OCO2, the “MBP+ mature oligodendrocyte number” value was -5.59.
In the case of CC(Cc1ccc(OCC(=O)O)cc1)NCC(O)c1cccc(Cl)c1 (stereo not drawn), the “MBP+ mature oligodendrocyte number” value is reported as -0.825.
For CC(C)=CCOc1c2occc2cc2ccc(=O)oc12 [Imperatorin], the “MBP+ mature oligodendrocyte number” value was 2.02.
For C=CCN1C[C@H](C)N([C@H](c2ccc(C(=O)N(CC)CC)cc2)c2cccc(OC)c2)C[C@H]1C, the “MBP+ mature oligodendrocyte number” value was 8.68.
In the case of O=[N+]([O-])c1cc(O)c(O)c([N+](=O)[O-])c1 [3,5-Dinitrocatechol], the “MBP+ mature oligodendrocyte number” value is reported as 0.869.
In the case of CN[C@@H]1C[C@@H](c2ccc(Cl)c(Cl)c2)c2ccccc21 [Indatraline hydrochloride], the “MBP+ mature oligodendrocyte number” value is reported as -3.77.
With Fc1cc(F)c2c(c1)[C@H]1C=CC[C@H]1C(c1cccnc1)N2 (stereo partly drawn) [Golgicide A] the “MBP+ mature oligodendrocyte number” value was -6.18.
CN1[C@@H]2CC[C@H]1C[C@@H](OC(=O)[C@H](CO)c1ccccc1)C2 [Hyoscyamine] was tested, and the “MBP+ mature oligodendrocyte number” value was 0.819.
In the case of CN1[C@@H]2CC[C@H]1C[C@@H](OC(=O)[C@H](CO)c1ccccc1)C2 [L-Hyoscyamine], the “MBP+ mature oligodendrocyte number” value is reported as 0.712.
Nc1nc(N)nc(NC2CC2)n1 [Cyromazine] was tested, and the “MBP+ mature oligodendrocyte number” value was 3.62.
O=C(N[C@H]1CN2CCC1CC2)c1cc2ccoc2cn1 was tested, and the “MBP+ mature oligodendrocyte number” value was 0.813.
For C=C(C)[C@H]1CN[C@H](C(=O)O)[C@H]1CC(=O)O [Kainic acid], the “MBP+ mature oligodendrocyte number” value was 0.617.
In the case of Cc1cc(O)ccc1Cl [Chlorocresol], the “MBP+ mature oligodendrocyte number” value is reported as 0.407.
With O=C(N[C@H]1CN2CCC1CC2)c1ccc(Cl)cc1 the “MBP+ mature oligodendrocyte number” value was 0.0294.
For O=[N+]([O-])c1ccc2nc(N3CCNCC3)ccc2c1 [Quipazine, 6-nitro-, maleate], the “MBP+ mature oligodendrocyte number” value was -2.43.
In the case of N#Cc1ccc(N2CCN(C(=O)COc3ccc4[nH]cc(CCN)c4c3)CC2)cc1 [Donitriptan monohydrochloride], the “MBP+ mature oligodendrocyte number” value is reported as -0.648.
c1cc2c(cc1[C@H]1OC[C@H]3[C@@H]1CO[C@@H]3c1ccc3c(c1)OCO3)OCO2 [Sesamin] was tested, and the “MBP+ mature oligodendrocyte number” value was 0.283.
In the case of CC(C)(C)c1cc(C(C)(C)C)c2c(c1)C(O)(C(F)(F)F)C(=O)O2 (racemic), the “MBP+ mature oligodendrocyte number” value is reported as 0.182.
In the case of CCCCC/C=C\C/C=C\C/C=C\C/C=C\CCCC(=O)NCc1ccc(O)c(OC)c1 [Arvanil], the “MBP+ mature oligodendrocyte number” value is reported as less than -3.34.
O=c1[nH]c2ccccc2n1CCCN1CCC(n2c(=O)[nH]c3cc(Cl)ccc32)CC1 [Domperidone] was tested, and the “MBP+ mature oligodendrocyte number” value was -1.87 ± 0.2.
S=C(NC1CCCCC1)N1CCC(c2cnc[nH]2)CC1 [Thioperamide maleate] was tested, and the “MBP+ mature oligodendrocyte number” value was 0.182.
In the case of CN1[C@@H]2CC(O)C[C@H]1[C@@H]1O[C@@H]12 (stereo partly drawn) [Scopine], the “MBP+ mature oligodendrocyte number” value is reported as 0.227.
For CN1[C@@H]2CC(O)C[C@H]1[C@@H]1O[C@@H]12 (stereo partly drawn) [Scopine HCl], the “MBP+ mature oligodendrocyte number” value was 0.171.
For CC1(C)CC(O)CC(C)(C)N1[O] [Tempol], the “MBP+ mature oligodendrocyte number” value was 1.93.
With NC(N)=NOCC[C@H](N)C(=O)O [L-Canavanine] the “MBP+ mature oligodendrocyte number” value was 0.0839.
For NC(N)=NOCC[C@H](N)C(=O)O [L-Canavanine sulfate], the “MBP+ mature oligodendrocyte number” value was -1.26.
In the case of N[C@@H](Cn1oc(=O)[nH]c1=O)C(=O)O [(+)-Quisqualic acid], the “MBP+ mature oligodendrocyte number” value is reported as 2.11.
COC[C@H]1OC(=O)c2coc3c2[C@@]1(C)C1=C(C3=O)[C@@H]2CCC(=O)[C@@]2(C)C[C@H]1OC(C)=O [Wortmannin] was tested, and the “MBP+ mature oligodendrocyte number” value was -0.928.
In the case of Clc1cnc(Oc2ccc(Oc3ncc(Cl)cc3Cl)cc2)c(Cl)c1, the “MBP+ mature oligodendrocyte number” value is reported as -0.568.
For CNCCc1ccc(O)c(O)c1 [N-Methyldopamine hydrochloride], the “MBP+ mature oligodendrocyte number” value was -0.544.
In the case of C=C[C@H]1CN2CC[C@H]1C[C@H]2[C@H](O)c1ccnc2ccccc12 [Cinchonidine], the “MBP+ mature oligodendrocyte number” value is reported as 1.18.
With Cc1cccc(C(C)c2c[nH]cn2)c1C (stereo not drawn) [Medetomidine HCl] the “MBP+ mature oligodendrocyte number” value was -1.17.
With COc1ccc2c(c1)[C@]13CCCC[C@@H]1[C@H](C2)N(C)CC3 [Dextromethorphan hydrobromide monohydrate] the “MBP+ mature oligodendrocyte number” value was -1.43.
For CCCN1CCC[C@@H]2Cc3nc(N)ncc3C[C@H]21 [Quinelorane dihydrochloride], the “MBP+ mature oligodendrocyte number” value was -0.961.
For CNCC(O)c1ccc(O)cc1 (racemic) [(±)-Synephrine], the “MBP+ mature oligodendrocyte number” value was -0.211.
With CC(Cc1ccc(O)cc1)NCC(O)c1cc(O)cc(O)c1 (stereo not drawn) [Fenoterol hydrobromide] the “MBP+ mature oligodendrocyte number” value was -0.91.
C/C(=C\c1csc(C)n1)[C@@H]1C[C@@H]2O[C@]2(C)CCC[C@H](C)[C@H](O)[C@@H](C)C(=O)C(C)(C)[C@@H](O)CC(=O)O1 [Epothilone B (EPO906, Patupilone)] was tested, and the “MBP+ mature oligodendrocyte number” value was -0.589.
For C1CCc2nnnn2CC1 [Pentylenetetrazole], the “MBP+ mature oligodendrocyte number” value was -1.23.
With Cn1cnc(CCN)c1 [1-Methylhistamine dihydrochloride] the “MBP+ mature oligodendrocyte number” value was -0.167.
In the case of C=CC[C@]1(O)CC[C@H]2[C@@H]3CCC4=CC(=O)CCC4=C3C=C[C@@]21C [Altrenogest], the “MBP+ mature oligodendrocyte number” value is reported as 8.76.
With C1=C2CCCN[C@H]2[C@@H]2C[C@H]1[C@H]1CCCCN1C2 [Aloperine] the “MBP+ mature oligodendrocyte number” value was -3.52.
With CC(N)Cc1c[nH]c2ccc(OCc3cccs3)cc12 (stereo not drawn) the “MBP+ mature oligodendrocyte number” value was -3.03.
In the case of CC(C)(C)OC(=O)NC1[C@H]2CNC[C@@H]12 (stereo partly drawn), the “MBP+ mature oligodendrocyte number” value is reported as 0.225.
C[N+](C)(C)CC#CCN1CCCC1=O [Oxotremorine methiodide] was tested, and the “MBP+ mature oligodendrocyte number” value was 0.0686.
In the case of NC(=O)c1ccc(OCC(O)CN2CC=C(c3ccc(F)cc3)CC2)cc1 (stereo not drawn), the “MBP+ mature oligodendrocyte number” value is reported as 13.9.
For NC(=O)CN1CC(O)CC1=O (stereo not drawn) [Oxiracetam], the “MBP+ mature oligodendrocyte number” value was -0.598.
For CN(C)Cc1c[nH]c2ccccc12 [Gramine], the “MBP+ mature oligodendrocyte number” value was 5.21.
In the case of C[N+]1(C)CCOC(O)(c2ccc(-c3ccc(C4(O)C[N+](C)(C)CCO4)cc3)cc2)C1 (stereo not drawn) [Hemicholinium-3], the “MBP+ mature oligodendrocyte number” value is reported as -0.596.
For Nc1ccncc1 [4-Aminopyridine], the “MBP+ mature oligodendrocyte number” value was -0.000818.
For CC[C@@H](C(N)=O)N1CCCC1=O [Levetiracetam], the “MBP+ mature oligodendrocyte number” value was 0.32 ± 0.42.
In the case of CCS(=O)(=O)Nc1cccc(C(=C2CCCCC2)c2cnc[nH]2)c1, the “MBP+ mature oligodendrocyte number” value is reported as 2.51.
With COc1ccc(C(=O)N2CCCC2=O)cc1 [Aniracetam] the “MBP+ mature oligodendrocyte number” value was -0.114 ± 0.56.
In the case of O=C1/C(=C/c2ccccc2)C[C@@]2(O)[C@H]3Cc4ccc(O)c5c4[C@@]2(CCN3CC2CC2)[C@H]1O5 [BNTX maleate salt hydrate], the “MBP+ mature oligodendrocyte number” value is reported as less than -4.47.
For CCCCCCCCCCCCCC(=O)O[C@@H]1[C@@H](C)[C@@]2(O)[C@@H](C=C(CO)C[C@]3(O)C(=O)C(C)=C[C@@H]23)[C@@H]2C(C)(C)[C@]12OC(C)=O [Phorbol 12-myristate 13-acetate], the “MBP+ mature oligodendrocyte number” value was 0.182.
O=C(O[C@H]1C[C@H]2CC[C@@H](C1)[N+]21CCCC1)C(O)(c1ccccc1)c1ccccc1 [Trospium chloride] was tested, and the “MBP+ mature oligodendrocyte number” value was 2.24.
For COc1cc(-n2c(=S)[nH]c3ccccc3c2=O)c(Cl)cc1Cl [Mdivi-1], the “MBP+ mature oligodendrocyte number” value was 3.7.
In the case of CCCN1C[C@H](CSC)C[C@@H]2c3cccc4[nH]cc(c34)C[C@H]21 [Pergolide methanesulfonate], the “MBP+ mature oligodendrocyte number” value is reported as -0.961.
CCCN1C[C@H](CSC)C[C@@H]2c3cccc4[nH]cc(c34)C[C@H]21 [Pergolide mesylate] was tested, and the “MBP+ mature oligodendrocyte number” value was -2.36.
In the case of CCCCc1ccc(C(=O)O)nc1 [Fusaric acid], the “MBP+ mature oligodendrocyte number” value is reported as -0.648.
For OC1CCCCC1N1CCC(c2ccccc2)CC1 (racemic) [(±)-Vesamicol hydrochloride], the “MBP+ mature oligodendrocyte number” value was 15.7.
For N.N.[Cl][Pt][Cl] [Cisplatin], the “MBP+ mature oligodendrocyte number” value was 1.09 ± 2.6.
For CC(=O)Nc1ccc(Cc2ccc(NC(C)=O)cc2)cc1, the “MBP+ mature oligodendrocyte number” value was 2.55.
C[N+](C)(C)CC#CCOC(=O)Nc1cccc(Cl)c1 was tested, and the “MBP+ mature oligodendrocyte number” value was -0.629.
In the case of C[C@H]1CCC/C=C/[C@@H]2C[C@H](O)C[C@H]2[C@H](O)/C=C/C(=O)O1 [Brefeldin A], the “MBP+ mature oligodendrocyte number” value is reported as less than -6.35.
In the case of Cc1ncc(CNC(=O)N(CCCl)N=O)c(N)n1 [Nimustine hydrochloride], the “MBP+ mature oligodendrocyte number” value is reported as -1.77.
For COc1ccc2[nH]cc(CCN)c2c1 [O-Methylserotonin hydrochloride], the “MBP+ mature oligodendrocyte number” value was -1.93.
With CC[C@@]1(O)C(=O)OCc2c1cc1n(c2=O)Cc2cc3ccccc3nc2-1 [Camptothecin] the “MBP+ mature oligodendrocyte number” value was less than -6.7.
CC[C@@]1(O)C(=O)OCc2c1cc1n(c2=O)Cc2cc3ccccc3nc2-1 [(S)-(+)-Camptothecin] was tested, and the “MBP+ mature oligodendrocyte number” value was less than -4.47.
With C#C[C@]1(O)CC[C@H]2[C@@H]3CCC4=Cc5nc6nc7ccccc7n6cc5C[C@]4(C)[C@H]3CC[C@@]21C the “MBP+ mature oligodendrocyte number” value was -1.21.
With CCNC(=O)C[C@@H]1N=C(c2ccc(Cl)cc2)c2cc(OC)ccc2-n2c(C)nnc21 the “MBP+ mature oligodendrocyte number” value was -6.27.
For CN1c2ccccc2C(NCCCCCCC(=O)O)c2ccc(Cl)cc2S1(=O)=O (stereo not drawn) [Tianeptine sodium], the “MBP+ mature oligodendrocyte number” value was 2.2.
In the case of NC(CCP(=O)(O)O)C(=O)O (racemic) [(±)-2-Amino-4-phosphonobutyric acid], the “MBP+ mature oligodendrocyte number” value is reported as -0.236.
CC1C2Cc3ccc(O)cc3C1(C)CCN2CC1CC1 (single isomer, unassigned; (+)) [(+)-Cyclazocine] was tested, and the “MBP+ mature oligodendrocyte number” value was 0.398.
With CN1C[C@H](C(=O)N[C@]2(C)O[C@@]3(O)[C@@H]4CCCN4C(=O)[C@H](Cc4ccccc4)N3C2=O)C[C@@H]2c3cccc4[nH]cc(c34)C[C@H]21 [Dihydroergotamine methanesulfonate] the “MBP+ mature oligodendrocyte number” value was -1.8.
In the case of C[N+]1(C)[C@@H]2CC[C@H]1C[C@@H](OC(=O)C(CO)c1ccccc1)C2 (stereo partly drawn) [Atropine methyl nitrate], the “MBP+ mature oligodendrocyte number” value is reported as -0.158.
C[N+]1(C)[C@@H]2CC[C@H]1C[C@@H](OC(=O)C(CO)c1ccccc1)C2 (stereo partly drawn) [Atropine methyl bromide] was tested, and the “MBP+ mature oligodendrocyte number” value was -0.983.
For C[N+](C)(C)CCCCCCCCCC[N+](C)(C)C [Decamethonium dibromide], the “MBP+ mature oligodendrocyte number” value was 0.921.
With C[N+](C)(C)CCCCCCCCCC[N+](C)(C)C [Decamethonium Bromide] the “MBP+ mature oligodendrocyte number” value was 3.28.
N=C(N)c1ccc(CS(=O)(=O)F)cc1 [4-Amidinophenylmethanesulfonyl fluoride hydrochloride] was tested, and the “MBP+ mature oligodendrocyte number” value was -0.951.
